{
  "source": "the BET-seq Pho4 binding data (Le et al. 2018)",
  "note": "This is one part of the list. These are noisy estimates, calculated here from bound and input reads.",
  "data": [
    {"biological_target": "T1, Pho4 (S. cerevisiae) (UniProt P07270)", "T1 sequence": "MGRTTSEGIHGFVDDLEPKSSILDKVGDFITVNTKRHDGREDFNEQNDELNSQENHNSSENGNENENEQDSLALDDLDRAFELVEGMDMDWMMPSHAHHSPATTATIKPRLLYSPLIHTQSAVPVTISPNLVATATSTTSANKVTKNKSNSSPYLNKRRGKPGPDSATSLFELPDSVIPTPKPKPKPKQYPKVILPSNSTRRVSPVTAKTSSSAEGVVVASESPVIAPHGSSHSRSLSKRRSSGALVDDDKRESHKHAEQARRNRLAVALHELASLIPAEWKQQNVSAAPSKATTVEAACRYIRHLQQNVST", "assay": "relative binding free energy (BET-seq); higher = weaker binding", "details": "reference: library average", "units": {"relative binding free energy": "kcal/mol"}, "values": [
      {"sequence": "GTGGGCACGTGAGGCC", "relative binding free energy": 0.14},
      {"sequence": "TGGATCACGTGCGGCG", "relative binding free energy": 0.16},
      {"sequence": "TTATTCACGTGGGAGT", "relative binding free energy": 0.14},
      {"sequence": "ATAGTCACGTGATTTA", "relative binding free energy": 0.17},
      {"sequence": "TTTATCACGTGGAGTG", "relative binding free energy": 0.14},
      {"sequence": "TTAGCCACGTGGGAGG", "relative binding free energy": -0.29},
      {"sequence": "TGGGGCACGTGTTCAT", "relative binding free energy": -0.11},
      {"sequence": "GTTGTCACGTGTACAG", "relative binding free energy": 0.09},
      {"sequence": "AAGTACACGTGTTGTG", "relative binding free energy": -0.02},
      {"sequence": "GGGAGCACGTGCAGTT", "relative binding free energy": -0.08},
      {"sequence": "AAGATCACGTGTTTTT", "relative binding free energy": 0.19},
      {"sequence": "TAGTGCACGTGAATGA", "relative binding free energy": 0.26},
      {"sequence": "TTTAACACGTGGATTT", "relative binding free energy": 0.11},
      {"sequence": "CTGTACACGTGAGGTA", "relative binding free energy": 0.17},
      {"sequence": "TTTCGCACGTGGGGAA", "relative binding free energy": -0.13},
      {"sequence": "GAAGGCACGTGTTGAT", "relative binding free energy": -0.14},
      {"sequence": "GAGTGCACGTGTTGGG", "relative binding free energy": 0.09},
      {"sequence": "GTTACCACGTGGTTGT", "relative binding free energy": -0.04},
      {"sequence": "TGGATCACGTGGCCTG", "relative binding free energy": 0.15},
      {"sequence": "ACATTCACGTGGGTTT", "relative binding free energy": 0.17},
      {"sequence": "TGTTCCACGTGTGATG", "relative binding free energy": -0.02},
      {"sequence": "ACGAGCACGTGTTGGG", "relative binding free energy": 0.02},
      {"sequence": "TCGATCACGTGGGGTT", "relative binding free energy": 0.02},
      {"sequence": "TTCATCACGTGGTCGG", "relative binding free energy": 0.18},
      {"sequence": "TGGCTCACGTGGAAGT", "relative binding free energy": 0.19},
      {"sequence": "AGCTTCACGTGCAGTG", "relative binding free energy": 0.35},
      {"sequence": "AGAGGCACGTGAAGTG", "relative binding free energy": 0.15},
      {"sequence": "ATGTGCACGTGGGCGG", "relative binding free energy": -0.24},
      {"sequence": "TGCTTCACGTGAGTTT", "relative binding free energy": 0.35},
      {"sequence": "GTTTTCACGTGGGGAT", "relative binding free energy": 0.3},
      {"sequence": "TTTTTCACGTGAGCAG", "relative binding free energy": 0.33},
      {"sequence": "AGGCGCACGTGTTAGG", "relative binding free energy": -0.08},
      {"sequence": "TAGTTCACGTGTGAGG", "relative binding free energy": 0.32},
      {"sequence": "GTGGTCACGTGATAGT", "relative binding free energy": 0.25},
      {"sequence": "ATTCACACGTGTTGTA", "relative binding free energy": 0.19},
      {"sequence": "GGGTCCACGTGGTATT", "relative binding free energy": -0.08},
      {"sequence": "TCGAACACGTGGGTTT", "relative binding free energy": 0},
      {"sequence": "TTATGCACGTGTGAGG", "relative binding free energy": 0.14},
      {"sequence": "AATATCACGTGGAGTT", "relative binding free energy": 0.3},
      {"sequence": "AGTAGCACGTGCGGTT", "relative binding free energy": 0.01},
      {"sequence": "GAGTCCACGTGGGGGC", "relative binding free energy": -0.03},
      {"sequence": "TAAGGCACGTGGTATG", "relative binding free energy": -0.21},
      {"sequence": "GTCGGCACGTGTCGGG", "relative binding free energy": 0.08},
      {"sequence": "TAGAGCACGTGGGATG", "relative binding free energy": -0.14},
      {"sequence": "CTGGTCACGTGTCGGG", "relative binding free energy": 0.08},
      {"sequence": "TGGTACACGTGTTTGA", "relative binding free energy": 0.1},
      {"sequence": "TAGTGCACGTGGCCGT", "relative binding free energy": -0.15},
      {"sequence": "GTGTACACGTGCTGTG", "relative binding free energy": -0.02},
      {"sequence": "GGATTCACGTGGGGCT", "relative binding free energy": 0.15},
      {"sequence": "GGTTACACGTGTGAGC", "relative binding free energy": 0.31},
      {"sequence": "TGGCACACGTGCTGGT", "relative binding free energy": -0.01},
      {"sequence": "TTTTTCACGTGTTTCT", "relative binding free energy": 0.27},
      {"sequence": "GGGAGCACGTGGATGG", "relative binding free energy": -0.15},
      {"sequence": "AGTGTCACGTGCGGTA", "relative binding free energy": -0.09},
      {"sequence": "GTATGCACGTGCTTTG", "relative binding free energy": -0.08},
      {"sequence": "TGTTGCACGTGTGGCC", "relative binding free energy": 0.03},
      {"sequence": "TAATGCACGTGCAGTG", "relative binding free energy": 0.07},
      {"sequence": "AGGTTCACGTGTTACG", "relative binding free energy": 0.39},
      {"sequence": "TCGATCACGTGAAGGG", "relative binding free energy": 0.35},
      {"sequence": "AAATGCACGTGTATTT", "relative binding free energy": 0.03},
      {"sequence": "TATGACACGTGAGTAT", "relative binding free energy": 0.21},
      {"sequence": "GGAAGCACGTGCTGTT", "relative binding free energy": -0.11},
      {"sequence": "ATATTCACGTGTGAGC", "relative binding free energy": 0.35},
      {"sequence": "GTTCTCACGTGTCGGG", "relative binding free energy": 0.43},
      {"sequence": "GGTGCCACGTGTGGAA", "relative binding free energy": 0.12},
      {"sequence": "CGTGTCACGTGCTTTT", "relative binding free energy": 0},
      {"sequence": "GTGTTCACGTGGTGGG", "relative binding free energy": 0.24},
      {"sequence": "GTGATCACGTGAAGAG", "relative binding free energy": 0.32},
      {"sequence": "ATGAACACGTGGGCTG", "relative binding free energy": -0.12},
      {"sequence": "GTAGCCACGTGTTAGG", "relative binding free energy": -0.12},
      {"sequence": "TCCAACACGTGGGGGG", "relative binding free energy": -0.05},
      {"sequence": "ACAGGCACGTGGGTAA", "relative binding free energy": -0.28},
      {"sequence": "ATGGTCACGTGTCAGT", "relative binding free energy": 0.15},
      {"sequence": "ATGAGCACGTGGGTGA", "relative binding free energy": -0.24},
      {"sequence": "CGTGACACGTGTGTGT", "relative binding free energy": 0.13},
      {"sequence": "AGGCTCACGTGTGGAG", "relative binding free energy": 0.24},
      {"sequence": "TGAGGCACGTGTTAAT", "relative binding free energy": -0.01},
      {"sequence": "ATACTCACGTGGGCGG", "relative binding free energy": 0.19},
      {"sequence": "ATTATCACGTGGAATG", "relative binding free energy": 0.32},
      {"sequence": "CGGACCACGTGGAGGG", "relative binding free energy": 0.19},
      {"sequence": "TGTTACACGTGGGATG", "relative binding free energy": 0.06},
      {"sequence": "GTACTCACGTGTGTTT", "relative binding free energy": 0.3},
      {"sequence": "TTGTACACGTGGTAGC", "relative binding free energy": -0.09},
      {"sequence": "ATGTACACGTGTTGGC", "relative binding free energy": 0.02},
      {"sequence": "AAATACACGTGGTGAT", "relative binding free energy": 0.06},
      {"sequence": "TTTTTCACGTGCGTCG", "relative binding free energy": 0.04},
      {"sequence": "GGCAGCACGTGAGGGT", "relative binding free energy": 0.17},
      {"sequence": "GCTTGCACGTGGTGGA", "relative binding free energy": -0.03},
      {"sequence": "TTATTCACGTGAACGG", "relative binding free energy": 0.33},
      {"sequence": "AGCGGCACGTGGGAAT", "relative binding free energy": -0.19},
      {"sequence": "ATATTCACGTGCGTGG", "relative binding free energy": 0.09},
      {"sequence": "TGTTGCACGTGAATTT", "relative binding free energy": 0.29},
      {"sequence": "ATGGGCACGTGCGTGC", "relative binding free energy": -0.18},
      {"sequence": "TGGGGCACGTGCAGTA", "relative binding free energy": -0.12},
      {"sequence": "TTTAGCACGTGTGGGG", "relative binding free energy": 0},
      {"sequence": "ATAGGCACGTGGCTAG", "relative binding free energy": -0.26},
      {"sequence": "GTTCGCACGTGGTCAG", "relative binding free energy": -0.07},
      {"sequence": "TGTAACACGTGCTGAT", "relative binding free energy": 0.01},
      {"sequence": "TATGGCACGTGAGGGG", "relative binding free energy": 0.12},
      {"sequence": "TTGTCCACGTGATAGA", "relative binding free energy": 0.38},
      {"sequence": "GAGTTCACGTGTGCGT", "relative binding free energy": 0.09},
      {"sequence": "GGTGTCACGTGTTTAC", "relative binding free energy": 0.12},
      {"sequence": "GAGCACACGTGTTGGG", "relative binding free energy": 0.21},
      {"sequence": "GTGGGCACGTGTCGCG", "relative binding free energy": -0.06},
      {"sequence": "CATGTCACGTGGATTA", "relative binding free energy": 0.25},
      {"sequence": "GTTGGCACGTGGTACG", "relative binding free energy": -0.13},
      {"sequence": "TGCGTCACGTGGGCTT", "relative binding free energy": -0.07},
      {"sequence": "TGTGACACGTGGGGTA", "relative binding free energy": -0.13},
      {"sequence": "TCAGTCACGTGGTGAA", "relative binding free energy": 0.1},
      {"sequence": "TTTTGCACGTGTGCGA", "relative binding free energy": -0.02},
      {"sequence": "AATGACACGTGAGATG", "relative binding free energy": 0.31},
      {"sequence": "TTCGGCACGTGGCAGG", "relative binding free energy": -0.15},
      {"sequence": "TTATACACGTGTAGTA", "relative binding free energy": 0},
      {"sequence": "TAGGGCACGTGGATCT", "relative binding free energy": -0.11},
      {"sequence": "TTTGACACGTGGGAAA", "relative binding free energy": -0.04}
    ]}
  ]
}
